# Measured values from publication PMC12115464.
# Chains of the proteins cited; added tags and fusions are not shown.
# UniProt P02538: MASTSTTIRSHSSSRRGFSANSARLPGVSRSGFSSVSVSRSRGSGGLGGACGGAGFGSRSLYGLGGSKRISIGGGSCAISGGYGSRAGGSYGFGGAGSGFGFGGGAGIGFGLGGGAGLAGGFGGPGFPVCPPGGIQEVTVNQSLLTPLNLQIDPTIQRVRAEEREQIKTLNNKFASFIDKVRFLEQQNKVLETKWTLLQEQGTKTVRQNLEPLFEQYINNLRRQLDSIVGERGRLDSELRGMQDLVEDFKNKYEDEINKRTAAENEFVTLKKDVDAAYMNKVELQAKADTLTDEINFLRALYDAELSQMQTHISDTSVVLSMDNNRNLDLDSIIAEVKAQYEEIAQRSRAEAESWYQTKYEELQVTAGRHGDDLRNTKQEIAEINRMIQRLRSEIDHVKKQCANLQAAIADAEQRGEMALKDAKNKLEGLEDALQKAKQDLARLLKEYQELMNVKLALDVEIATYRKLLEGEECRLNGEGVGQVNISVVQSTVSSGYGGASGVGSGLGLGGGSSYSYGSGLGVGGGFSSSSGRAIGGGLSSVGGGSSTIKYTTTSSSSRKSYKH
# UniProt P15682: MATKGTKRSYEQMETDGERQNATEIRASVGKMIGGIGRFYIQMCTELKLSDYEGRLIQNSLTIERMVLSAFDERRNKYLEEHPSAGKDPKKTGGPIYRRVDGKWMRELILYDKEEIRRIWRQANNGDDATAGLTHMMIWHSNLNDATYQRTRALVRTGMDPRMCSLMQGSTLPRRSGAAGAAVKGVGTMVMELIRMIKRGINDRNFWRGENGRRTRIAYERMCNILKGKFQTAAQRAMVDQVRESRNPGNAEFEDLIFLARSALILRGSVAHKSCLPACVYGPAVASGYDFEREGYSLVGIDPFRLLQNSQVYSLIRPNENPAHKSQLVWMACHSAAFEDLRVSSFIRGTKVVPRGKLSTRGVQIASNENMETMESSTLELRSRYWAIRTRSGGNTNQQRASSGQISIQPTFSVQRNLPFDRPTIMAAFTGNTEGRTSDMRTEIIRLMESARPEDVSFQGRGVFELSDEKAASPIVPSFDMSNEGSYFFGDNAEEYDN
# UniProt P03430: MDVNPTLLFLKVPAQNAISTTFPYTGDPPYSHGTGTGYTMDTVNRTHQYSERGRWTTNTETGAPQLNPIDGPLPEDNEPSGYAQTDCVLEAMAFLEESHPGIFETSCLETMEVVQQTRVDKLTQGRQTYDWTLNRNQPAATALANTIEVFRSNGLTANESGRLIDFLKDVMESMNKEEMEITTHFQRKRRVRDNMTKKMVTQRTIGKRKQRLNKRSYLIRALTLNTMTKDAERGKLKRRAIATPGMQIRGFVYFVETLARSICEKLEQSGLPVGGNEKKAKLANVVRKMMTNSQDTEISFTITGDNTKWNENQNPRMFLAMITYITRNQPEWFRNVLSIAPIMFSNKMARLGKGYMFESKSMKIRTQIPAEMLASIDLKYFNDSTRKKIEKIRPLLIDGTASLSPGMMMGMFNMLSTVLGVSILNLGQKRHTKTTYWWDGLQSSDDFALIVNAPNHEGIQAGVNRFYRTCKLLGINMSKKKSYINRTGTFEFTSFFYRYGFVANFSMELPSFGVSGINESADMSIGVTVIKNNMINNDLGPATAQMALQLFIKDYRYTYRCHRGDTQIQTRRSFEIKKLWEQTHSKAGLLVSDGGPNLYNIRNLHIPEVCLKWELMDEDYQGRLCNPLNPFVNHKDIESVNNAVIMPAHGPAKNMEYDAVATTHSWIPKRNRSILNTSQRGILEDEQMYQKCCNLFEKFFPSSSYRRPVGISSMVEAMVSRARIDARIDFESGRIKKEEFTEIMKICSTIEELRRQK
# UniProt P03427: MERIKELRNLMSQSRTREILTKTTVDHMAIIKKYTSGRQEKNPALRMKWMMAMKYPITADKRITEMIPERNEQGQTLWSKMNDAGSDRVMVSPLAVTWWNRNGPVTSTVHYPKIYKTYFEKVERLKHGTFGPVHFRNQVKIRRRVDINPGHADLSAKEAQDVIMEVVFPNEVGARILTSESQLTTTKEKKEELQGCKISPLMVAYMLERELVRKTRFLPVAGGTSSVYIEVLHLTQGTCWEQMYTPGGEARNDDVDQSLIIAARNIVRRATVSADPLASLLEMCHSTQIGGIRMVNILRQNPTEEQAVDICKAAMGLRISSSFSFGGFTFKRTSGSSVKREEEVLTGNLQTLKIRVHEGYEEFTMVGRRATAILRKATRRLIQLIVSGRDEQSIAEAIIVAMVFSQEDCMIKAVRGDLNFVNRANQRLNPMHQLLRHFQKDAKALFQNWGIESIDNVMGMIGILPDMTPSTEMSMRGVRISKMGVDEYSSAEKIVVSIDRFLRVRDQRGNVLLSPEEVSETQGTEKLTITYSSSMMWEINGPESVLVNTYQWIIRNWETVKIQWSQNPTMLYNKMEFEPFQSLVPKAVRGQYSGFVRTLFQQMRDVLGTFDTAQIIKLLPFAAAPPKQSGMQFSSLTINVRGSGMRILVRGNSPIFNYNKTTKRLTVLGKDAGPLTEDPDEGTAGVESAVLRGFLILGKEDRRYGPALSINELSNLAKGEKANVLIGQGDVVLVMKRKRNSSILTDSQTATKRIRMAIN
# UniProt O00629: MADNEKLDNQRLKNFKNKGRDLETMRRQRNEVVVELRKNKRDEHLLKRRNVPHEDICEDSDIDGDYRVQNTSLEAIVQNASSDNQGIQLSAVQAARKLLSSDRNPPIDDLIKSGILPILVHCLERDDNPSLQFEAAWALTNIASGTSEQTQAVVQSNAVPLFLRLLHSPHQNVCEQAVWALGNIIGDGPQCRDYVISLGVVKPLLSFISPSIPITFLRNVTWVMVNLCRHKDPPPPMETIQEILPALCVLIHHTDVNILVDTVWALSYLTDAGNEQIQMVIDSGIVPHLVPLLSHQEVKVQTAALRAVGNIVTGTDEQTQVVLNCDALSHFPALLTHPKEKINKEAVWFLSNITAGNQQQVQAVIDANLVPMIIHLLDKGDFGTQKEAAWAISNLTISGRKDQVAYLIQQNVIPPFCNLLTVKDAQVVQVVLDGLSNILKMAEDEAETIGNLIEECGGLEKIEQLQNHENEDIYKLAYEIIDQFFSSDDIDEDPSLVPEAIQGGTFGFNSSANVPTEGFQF
# UniProt P52294: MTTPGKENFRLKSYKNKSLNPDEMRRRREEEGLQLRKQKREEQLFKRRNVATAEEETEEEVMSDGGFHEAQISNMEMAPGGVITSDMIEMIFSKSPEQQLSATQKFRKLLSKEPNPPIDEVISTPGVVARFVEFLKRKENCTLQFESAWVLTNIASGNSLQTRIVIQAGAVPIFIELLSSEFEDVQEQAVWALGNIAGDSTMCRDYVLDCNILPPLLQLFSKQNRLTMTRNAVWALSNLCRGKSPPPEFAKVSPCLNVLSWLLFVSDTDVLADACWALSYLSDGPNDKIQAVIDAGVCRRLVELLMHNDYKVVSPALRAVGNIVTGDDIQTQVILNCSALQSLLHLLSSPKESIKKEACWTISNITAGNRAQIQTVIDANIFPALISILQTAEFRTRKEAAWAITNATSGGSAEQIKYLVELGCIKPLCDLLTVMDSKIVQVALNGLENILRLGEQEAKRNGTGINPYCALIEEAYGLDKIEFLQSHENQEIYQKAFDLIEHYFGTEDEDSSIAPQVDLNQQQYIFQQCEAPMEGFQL
# These are yes or no findings as the source states them, for the method shown. Binding seen in cells or lysates may run through a third protein. Some results given as binding are weak or reduced against the parent protein; the word gives no strength.
# Tests used:
# [1] = target: Myc-tagged keratin 6A (KRT6A) (UniProt P02538); test: co-IP
# [2] = target: nucleoprotein (NP) of A/WSN/1933 (H1N1) virus, untagged, from pCAGGS (influenza A virus A/WSN/1933 (WSN, H1N1)) (UniProt P15682); test: co-IP
# [3] = target: polymerase basic protein 1 (PB1) of A/WSN/1933 (H1N1) virus, untagged, from pCAGGS (influenza A virus A/WSN/1933 (WSN, H1N1)) (UniProt P03430); test: co-IP
# [4] = target: polymerase basic protein 2 (PB2) of A/WSN/1933 (H1N1) virus, untagged, from pCAGGS (influenza A virus A/WSN/1933 (WSN, H1N1)) (UniProt P03427); test: co-IP
# Flag-tagged importin α3 [5] = target: Flag-tagged importin α3 (UniProt O00629); test: co-IP; HEK293T transfected with Myc-KRT6A and Flag-tagged importin α1, α3, α5 or α7, individually or in combination; lysates immunoprecipitated with mouse anti-Flag mAb; blot with rabbit anti-Flag or anti-KRT6A pAb
# Flag-tagged importin α5 [6] = target: Flag-tagged importin α5 (UniProt P52294); test: as above
# Flag-tagged importin α7 [7] = target: Flag-tagged importin α7 (UniProt O60684); test: as above
# Flag-tagged importin α3 [8] = target: Flag-tagged importin α3 (UniProt O00629); test: co-IP
# Flag-tagged importin α5 [9] = target: Flag-tagged importin α5 (UniProt P52294); test: co-IP
# Flag-tagged importin α7 [10] = target: Flag-tagged importin α7 (UniProt O60684); test: co-IP
substance,measurement,setting,value
polymerase basic protein 2 (PB2) made in cells infected with WSN (H1N1) virus (from UniProt P03427 1-759),binding,[1],binds
Myc-tagged keratin 6A (KRT6A) (from UniProt P02538 1-564),binding,[2],binds
same,binding,[3],binds
same,binding,[4],binds
same,binding,Flag-tagged importin α3 [5],no binding
same,binding,Flag-tagged importin α5 [6],no binding
same,binding,Flag-tagged importin α7 [7],no binding
"polymerase basic protein 2 (PB2) of A/WSN/1933 (H1N1) virus, untagged, from pCAGGS (from UniProt P03427 1-759)",binding,[1],binds
polymerase basic protein 1 (PB1) made in cells infected with WSN (H1N1) virus (from UniProt P03430 1-757),binding,[1],binds
nucleoprotein (NP) made in cells infected with WSN (H1N1) virus (from UniProt P15682 1-498),binding,[1],binds
"polymerase basic protein 1 (PB1) of A/WSN/1933 (H1N1) virus, untagged, from pCAGGS (from UniProt P03430 1-757)",binding,[1],binds
"nucleoprotein (NP) of A/WSN/1933 (H1N1) virus, untagged, from pCAGGS (from UniProt P15682 1-498)",binding,Flag-tagged importin α3 [8],binds
same,binding,Flag-tagged importin α5 [9],binds
same,binding,Flag-tagged importin α7 [10],binds
same,binding,[1],binds
